Results on seven molecules are retold here after PMC10813319 (Biomedicines, 2024).

This assay concerns Aβd/t-induced cofilactin rods in E16.5 mouse hippocampal neurons (6 DIV). Briefly: cells. Particulars: for Inhibition of Aβd/t-induced rod formation at a single concentration: 1 nM peptide, 24 h with Aβd/t, n = 2 (Figure 3A). Here is the method:
Each coated surface was washed three times with phosphate-buffered saline (PBS: 140 mM NaCl, 2.7 mM KCl, 8 mM NaH2PO4, pH 7.2). After incubation of the neurons for 2–3 h (37 °C, 5% CO2), medium was exchanged for serum-free complete hNB. Full changes of medium were performed every 2 days in vitro (DIV 2), and treatments were initiated at either DIV 5 or 6 and maintained for 24 to 48 h.

The mark [1] stands for this setting: read-out: Rodent Neuron EC50, inhibition of Aβd/t-induced rods, neurons treated 24 h with Aβd/t plus peptide, Table 1.
The mark [2] stands for this setting: 6 DIV mouse hippocampal neurons.

Like-named read-outs stand apart in the source and are kept apart here. Square brackets hold non-standard residues; d marks the D form. Peptide text beside a SMILES is read from it.

Regarding `C[C@H](O)[C@@H](NC(=O)[C@@H](Cc1ccc(O)cc1)NC(=O)[C@@H](CC(N)=O)NC(=O)[C@H](NC(=O)[C@H](N)CO)[C@H](C)O)C(=O)O` [Peptide 3] (H-[dS][dT][dN][dY][dT]-OH), the EC50 under setting [1] is ~1.5 nM. As for Maraviroc [reference compound], the EC50 (read-out: EC50 for inhibition of Aβd/t-induced rods, mouse neurons, 6 DIV mouse hippocampal neurons, <1 nM to 100 nM, approximate, estimated from semi-log plots (Figure S2A,B), n = 3) was 8 to 9 nM. `c1cc(CN2CCCNCCNCCCNCC2)ccc1CN1CCCNCCNCCCNCC1` [AMD3100, reference compound]: the EC50 (Mus musculus, Hippocampal neuron, read-out: EC50 for inhibition of Aβd/t-induced rods, mouse neurons) fell in the range of 2 to 3 nM.

For `C[C@H](O)[C@@H](N)C(=O)N[C@@H](C(=O)N[C@H](CC(N)=O)C(=O)N[C@H](Cc1ccc(O)cc1)C(=O)N[C@@H](C(=O)O)[C@H](C)O)[C@H](C)O` [RAP-103], the “Inhibition of Aβd/t-induced rod formation at a single concentration” value under setting [2] is reported as “significant rod-inhibiting activity”. The EC50 under setting [1] is 0.0015 nM. As for `C[C@H](O)[C@@H](NC(=O)[C@@H](CO)NC(=O)[C@H](N)CO)C(=O)N[C@H](Cc1ccc(O)cc1)C(=O)N[C@H](CCCNC(=N)N)C(=O)O` [Peptide 2], the EC50 under setting [1] was ~1 nM. For the molecule `C[C@H](O)[C@@H](NC(=O)[C@@H](Cc1ccc(O)cc1)NC(=O)[C@@H](CC(N)=O)NC(=O)[C@H](NC(=O)[C@H](NC(=O)[C@H](NC(=O)[C@@H](CO)NC(=O)[C@@H](C)N)[C@H](C)O)[C@H](C)O)[C@H](C)O)C(N)=O` [RAP-310], under setting [2], the “Inhibition of Aβd/t-induced rod formation at a single concentration” value is on record as “significant rod-inhibiting activity”. On to `CN[C@@H](C(=O)N[C@@H](C(=O)N[C@H](CC(N)=O)C(=O)N[C@H](Cc1ccc(O)cc1)C(=O)N[C@@H](C(=O)O)[C@H](C)O)[C@H](C)O)[C@H](C)O` [Peptide 6], for which, under setting [1], the EC50 was > 5 nM.
